Holding throughout (assay): co-IP; HEK293T cells co-transfected with Flag- and HA-tagged plasmids; lysis in 50 mM Tris-HCl pH 7.5, 300 mM NaCl, 1% Triton-X, 5 mM EDTA, 10% glycerol; IP with anti-Flag antibody and Protein-G Sepharose, immunoblot with anti-HA and anti-Flag; in some panels cells treated with DMSO or ATP (5 mM) for 2 h; Fig. 6d-g shown as pairs of IPs whose antibodies the legend does not name
(Immunoblotting shows a protein as a band on a membrane.)

Amino acid sequences for entries named in this document (tags omitted).
UniProt P49023: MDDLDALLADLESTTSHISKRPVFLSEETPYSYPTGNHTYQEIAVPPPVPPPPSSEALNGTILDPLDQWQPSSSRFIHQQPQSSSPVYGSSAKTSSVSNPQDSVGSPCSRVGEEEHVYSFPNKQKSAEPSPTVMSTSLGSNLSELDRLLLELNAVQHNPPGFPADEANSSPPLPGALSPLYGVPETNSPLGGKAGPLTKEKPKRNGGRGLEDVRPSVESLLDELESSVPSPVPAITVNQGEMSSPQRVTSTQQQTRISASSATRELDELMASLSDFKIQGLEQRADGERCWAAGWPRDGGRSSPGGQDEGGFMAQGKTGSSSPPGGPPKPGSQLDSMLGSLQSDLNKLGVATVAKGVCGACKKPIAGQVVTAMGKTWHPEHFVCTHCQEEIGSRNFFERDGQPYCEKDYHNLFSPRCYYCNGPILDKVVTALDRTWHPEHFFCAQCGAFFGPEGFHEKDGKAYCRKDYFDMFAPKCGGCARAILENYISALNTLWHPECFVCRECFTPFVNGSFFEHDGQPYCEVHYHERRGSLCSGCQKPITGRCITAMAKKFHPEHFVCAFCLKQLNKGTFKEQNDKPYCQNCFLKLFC

For one assay, the target named is T1, Flag-P2X7R (UniProt Q99572).
T1 sequence: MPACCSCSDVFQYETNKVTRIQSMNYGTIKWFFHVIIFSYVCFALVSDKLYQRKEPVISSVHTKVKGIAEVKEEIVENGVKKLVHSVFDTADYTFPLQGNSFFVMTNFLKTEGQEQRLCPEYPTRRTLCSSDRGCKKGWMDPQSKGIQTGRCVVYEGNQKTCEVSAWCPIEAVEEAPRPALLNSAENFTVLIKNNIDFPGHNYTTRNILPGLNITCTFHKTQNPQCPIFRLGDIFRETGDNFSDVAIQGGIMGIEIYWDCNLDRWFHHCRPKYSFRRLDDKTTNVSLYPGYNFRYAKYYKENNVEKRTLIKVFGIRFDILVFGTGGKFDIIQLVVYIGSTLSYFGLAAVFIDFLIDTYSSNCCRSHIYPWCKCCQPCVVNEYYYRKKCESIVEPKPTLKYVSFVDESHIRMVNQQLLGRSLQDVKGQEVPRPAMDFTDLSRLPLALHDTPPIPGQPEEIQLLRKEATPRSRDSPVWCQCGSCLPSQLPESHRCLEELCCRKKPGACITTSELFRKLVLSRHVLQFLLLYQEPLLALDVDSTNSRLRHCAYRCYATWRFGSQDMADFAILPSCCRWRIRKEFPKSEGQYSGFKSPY

In a further assay the target is T2, Flag-P2X7R(33–595) (UniProt Q99572).
T2 sequence: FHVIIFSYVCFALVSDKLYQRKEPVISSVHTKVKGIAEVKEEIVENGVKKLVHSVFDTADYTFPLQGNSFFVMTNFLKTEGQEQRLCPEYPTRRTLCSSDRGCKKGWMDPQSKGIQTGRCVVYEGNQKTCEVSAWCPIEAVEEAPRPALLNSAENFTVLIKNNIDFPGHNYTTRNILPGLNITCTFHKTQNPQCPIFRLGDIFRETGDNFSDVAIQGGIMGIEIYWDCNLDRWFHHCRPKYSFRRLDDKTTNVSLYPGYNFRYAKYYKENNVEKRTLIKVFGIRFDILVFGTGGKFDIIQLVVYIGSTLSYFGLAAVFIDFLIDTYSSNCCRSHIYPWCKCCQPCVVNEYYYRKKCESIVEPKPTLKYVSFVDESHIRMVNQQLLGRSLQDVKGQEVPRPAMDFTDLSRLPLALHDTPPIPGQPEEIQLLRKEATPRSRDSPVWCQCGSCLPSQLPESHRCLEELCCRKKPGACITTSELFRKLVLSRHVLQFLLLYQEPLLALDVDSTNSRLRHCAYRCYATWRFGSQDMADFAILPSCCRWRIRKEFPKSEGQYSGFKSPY

Another assay addresses T3, Flag-P2X7R(35–595) (UniProt Q99572).
T3 sequence: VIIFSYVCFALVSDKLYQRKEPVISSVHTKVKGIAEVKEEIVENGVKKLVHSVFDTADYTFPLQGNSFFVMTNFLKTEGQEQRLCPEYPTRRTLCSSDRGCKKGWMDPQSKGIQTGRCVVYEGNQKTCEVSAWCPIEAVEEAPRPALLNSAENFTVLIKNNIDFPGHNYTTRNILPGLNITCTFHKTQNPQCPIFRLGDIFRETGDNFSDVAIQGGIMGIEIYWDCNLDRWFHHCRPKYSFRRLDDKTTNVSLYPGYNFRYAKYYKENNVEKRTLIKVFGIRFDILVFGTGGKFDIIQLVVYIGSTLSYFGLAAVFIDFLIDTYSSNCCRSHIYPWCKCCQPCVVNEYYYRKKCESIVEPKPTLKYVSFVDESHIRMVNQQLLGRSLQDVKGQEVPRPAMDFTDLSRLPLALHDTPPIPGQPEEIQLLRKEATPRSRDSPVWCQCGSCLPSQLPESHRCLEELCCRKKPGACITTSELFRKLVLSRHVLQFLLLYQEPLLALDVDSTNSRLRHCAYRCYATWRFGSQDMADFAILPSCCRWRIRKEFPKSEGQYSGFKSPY

For assay [1], the target named is T4, Flag-USP13(301–863) (human) (UniProt Q92995).
T4 sequence: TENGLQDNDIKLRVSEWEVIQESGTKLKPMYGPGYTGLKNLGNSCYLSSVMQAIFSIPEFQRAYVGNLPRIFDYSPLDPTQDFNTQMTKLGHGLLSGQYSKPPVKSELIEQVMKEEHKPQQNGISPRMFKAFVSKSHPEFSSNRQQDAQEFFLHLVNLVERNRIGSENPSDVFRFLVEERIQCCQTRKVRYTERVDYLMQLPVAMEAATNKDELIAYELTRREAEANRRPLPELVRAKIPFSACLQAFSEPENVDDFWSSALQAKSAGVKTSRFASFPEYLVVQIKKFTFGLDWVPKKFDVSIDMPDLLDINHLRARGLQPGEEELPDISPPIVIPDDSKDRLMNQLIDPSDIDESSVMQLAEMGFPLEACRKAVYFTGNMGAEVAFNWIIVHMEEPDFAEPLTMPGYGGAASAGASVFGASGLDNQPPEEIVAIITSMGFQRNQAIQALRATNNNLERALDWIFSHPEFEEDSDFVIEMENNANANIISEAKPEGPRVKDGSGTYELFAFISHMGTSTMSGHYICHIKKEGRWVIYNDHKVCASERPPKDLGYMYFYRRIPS

Results are given in words; binding and its absence hold for the method and conditions named. Binding seen in cells or lysates may run through a third protein. Some entries that bind do so weakly or less than the wild type. Sequences can lack the tags named with a protein.

As for HA-Paxillin (from UniProt P49023 1-591), the binding result with Flag-P2X7R is given as “binds”; in the assay with Flag-P2X7R(33–595), “no binding”; in the assay with Flag-P2X7R(35–595), “no binding”; in assay [1], “no binding”.
